Reference: PubChem BioAssay AID686979 (National Center for Advancing Translational Sciences (NCATS), 2013)
“And” between values parts separate entries of the source, which are not always exact repeats. Equal values may be shown once. The campaign covered roughly 420,000 compounds. About 50,000 (12%) were called active. Inconclusive results, whose numbers are uncertain, are shown with a selection of clear calls. Calls come from the whole dose curve; as a rule, active = well fitted inhibition curve with a large enough effect; inconclusive = small, poorly fitted or top-dose-only effect; inactive = flat fitted curve, though single readings scatter. A potency beside an inconclusive call is a rough fit, not a confirmed value.

Experiment: qHTS for Inhibitors of human tyrosyl-DNA phosphodiesterase 1 (TDP1): qHTS in cells in presence of CPT; note: nearly all actives have a fitted effect of over 55% in size
Conditions: chicken DT40 Tdp1-/-;hTDP1 cells + 20 nM CPT, ATP luminescence, 48 h; activity change, negative = growth inhibition: at 46.2 µM (top of the series)
In short: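 Chicken DT40 Tdp1-/- cells stably complemented with human TDP1 were seeded at 400 cells/well in medium containing 20 nM camptothecin, exposed to pin-transferred compounds, and grown at 37 °C for at least 48 hr. Viability was read as ATP luminescence.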
% is set by controls: 0 for no effect and ±100 for the full control effect; potency is the fitted concentration of half-maximal effect; tags give direction and shape of the fitted curve.

SMILES	Potency	activity change, negative = growth inhibition
O=C1CCCN1CCCNc1ncnc2c1cnn2-c1ccc(Cl)cc1	inconclusive: 16.4 µM [inhibitor, single point]	–
COC(=O)c1sc(NC(=O)CSc2nc3cccnc3n2C)nc1C	inconclusive: 20.6 µM [inhibitor, single point]	–
COC(=O)c1ccc(Cl)cc1NC(=O)Nc1nnc(N(C)Cc2ccccc2)s1	–	inactive: -21.3%
CC(C)C[C@H]1CN=C(Nc2ccccc2)N1CC1CCC(C(C)(C)C)CC1 (stereo partly drawn)	active: 5.8 µM	–
COc1ccc(C2c3c(-c4ccccc4O)n[nH]c3C(=O)N2CCc2ccccc2)cc1 (stereo not drawn)	inconclusive: 25.9 µM [inhibitor, single point]	–
CN(C)C(CNc1ccc(S(C)(=O)=O)cc1[N+](=O)[O-])c1ccccc1 (stereo not drawn)	–	inactive: 0.902%
Cc1cc2cc(CCNC(=O)CC(C)(C)C)c(=O)[nH]c2cc1C	inconclusive: 29.1 µM [inhibitor, single point]	–
COc1cc(OC)cc(-c2nc3ccccc3c(=O)n2OC(=O)c2ccccc2C)c1	inconclusive: 20.6 µM [inhibitor, single point]	–
COC(=O)c1ccccc1NC(=O)c1nc(S(=O)(=O)Cc2ccccc2)ncc1Cl	active: 2.91 µM	–
O=S(=O)(Nc1cccc(-c2ccc(N3CCOCC3)nn2)c1)c1cc(C(F)(F)F)ccc1Cl	inconclusive: 18.4 µM [inhibitor, single point]	–
COc1ccccc1NC(=O)CN1CCN(CC(=O)Nc2ccc(F)c(F)c2)CC1	inconclusive: 13 µM [inhibitor, partial curve]	–
COc1ccc(Cl)cc1S(=O)(=O)N1CCN=C1C	active: 18.4 µM	–
COc1ccc2c(c1)c(=O)c(C(=O)c1ccc(C)cc1)cn2Cc1ccccc1F	inconclusive: 29.1 µM [inhibitor, single point]	–
Fc1ccc(-c2cc(C(F)(F)F)nc(-n3cncn3)n2)cc1	inconclusive: 35.5 µM [inhibitor, single point]	–
CNc1cncc(-c2ccc(O)cc2)n1	inconclusive: 23.1 µM [inhibitor, partial curve, poor fit]	–
CCCCC1CC2=C(C(=O)OC(C)(C)O2)C(c2ccc(Cl)cc2)O1 (stereo not drawn)	inconclusive: 23.1 µM [inhibitor, single point]	–
Cc1cc(C)cc(NC(N)=S)c1	inconclusive: 29.1 µM [inhibitor, single point]	–
CCOC(=O)c1ccc(CN(Cc2ccc(Br)cc2)S(=O)(=O)c2cccc(C(F)(F)F)c2)cc1	inconclusive: 16.4 µM [inhibitor, partial curve]	–
CCC(C(=O)OC)n1nnc2sc(-c3ccccc3)cc2c1=O (stereo not drawn)	inconclusive: 20.6 µM [inhibitor, single point]	–
CCOc1ccc(S(=O)(=O)Nc2ccc(C(=O)N3CCC3)cc2)cc1	–	inactive: -20.9%
CCc1nc2ccc(C(=O)NCCCn3ccnc3)cn2c1N(CC)CCN(C)C	–	inactive: -16.6%
CC(C)Oc1cccc(C(=O)C2CCCN(C(=O)c3ccoc3)C2)c1 (stereo not drawn)	–	inactive: -76.2%
COc1cccc(OC)c1OCCNCC1CSc2ccccc2O1 (stereo not drawn)	active: 20.6 µM	–
CC(C)(C)OC(=O)N1C(=O)[C@](OC(=O)c2ccccc2)(c2ccc(F)cc2)c2ccccc21	inconclusive: 23.1 µM [inhibitor, single point]	–
O=C(/C=C/c1cccc([N+](=O)[O-])c1)NCCc1ccc(F)cc1	–	inconclusive: -30.2% [inhibitor]

SMILES	Potency	activity change, negative = growth inhibition
CC(C)N(Cc1nccn1C)C(=O)c1ccc2oc(CCCc3ccccc3)nc2c1	active: 18.4 µM	–
O=C(NCCc1ccccc1)C1Cc2c(-c3ccccc3)ccnc2O1 (stereo not drawn)	–	inconclusive: -37.5% [inhibitor]
c1ccc(-c2nnc(SCC3CCCCO3)nc2-c2ccccc2)cc1 (stereo not drawn)	inconclusive: 25.9 µM [inhibitor, single point]	–
CCOC(=O)C1=C(CN2CCc3ccccc32)NC(=O)NC1c1cc(C)ccc1C (stereo not drawn)	active: 17.8 µM	–
Cc1ccc(N2C(=O)CS(=O)(=O)C23C(=O)N(Cc2ccccc2F)c2ccccc23)cc1Cl (stereo not drawn)	active: 14.6 µM	–
O=C(Nc1ccncc1)c1cc(-c2cccc(Br)c2)nc2ccccc12	inconclusive: 0.731 µM [inhibitor, partial curve, poor fit]	–
CCOc1cc2[nH]c(=S)n(CCN3CCCCC3CC)c(=O)c2cc1OCC (stereo not drawn)	inconclusive: 29.1 µM [inhibitor, single point]	–
Cc1cc(C)c2c(=O)n3c(nc2c1)C(CC(C)C)NC(=O)c1cccnc1-3 (stereo not drawn)	inconclusive: 29.1 µM [inhibitor, single point]	–
CC(C)C(NC(=O)c1ccc(C(C)(C)C)cc1)C(=O)Nc1ccc(N2CCOCC2)cc1 (stereo not drawn)	inconclusive: 18.4 µM [inhibitor, single point]	–
O=C(NCC1CC1)c1onc(CSc2ccncc2)c1C(=O)NCC1CC1	inconclusive: 16.4 µM [inhibitor, single point]	–
COc1cccc(-c2ncc3ccccc3c2COC(=O)c2ccc(F)cc2)c1	inconclusive: 20.6 µM [inhibitor, single point]	–
O=C(/C=C/Sc1ncn[nH]1)c1ccc(Cl)cc1	active: 2.31 µM	–
Cc1ccc(C)c(S(=O)(=O)Nc2cc3c4c(c2)CCC(=O)N4CCC3)c1	inconclusive: 23.1 µM [inhibitor, partial curve]	–
CCC1(c2ccc(F)cc2)NC(=O)N(CC(=O)N2CCc3ccccc32)C1=O (stereo not drawn)	inconclusive: 29.1 µM [inhibitor, single point]	–
CCOc1ccc(S(=O)(=O)N2CCC(C(=O)NC3CC3)CC2)cc1Cl	inconclusive: 25.9 µM [inhibitor, single point]	–
COc1cccc(CNC(=O)COC(=O)c2nc(Cl)c(Cl)c(Cl)c2Cl)c1	active: 0.0082 µM	–
COC(=O)C(CCSC)NC(=O)c1cn(-c2ccc(OC)cc2)c(=O)c2ccccc12 (stereo not drawn)	–	inactive: -4.35%
CCOc1ccc(N(CC(=O)N2CCCC2)S(=O)(=O)c2ccc(Cl)cc2)cc1	–	inactive: -19%
COC(=O)C1CCCCN1Cc1ccc2c(c1)CN(C1CCSCC1)CCO2 (stereo not drawn)	–	inactive: -3.95% [at 9.04 µM]
CCOC(=O)N1CCN(CCC(=O)Nc2cccc(Cl)c2C)CC1	–	inactive: -24.5%
CCc1ccc(OCCCn2c(CCCNC(=O)C3CCCCC3)nc3ccccc32)cc1	active: 8.91 µM	–
O=C(CSc1ncn[nH]1)Nc1ccc([N+](=O)[O-])cc1Br	inconclusive: 11.6 µM [inhibitor, partial curve]	–
COc1cc2ncnc(NCCCN3CCOCC3)c2cc1OC	–	inactive: 5.62%
CN(c1ccccc1)C(CNS(=O)(=O)c1ccccc1)c1ccccc1 (stereo not drawn)	inconclusive: 18.4 µM [inhibitor, single point]	–
CC(=O)c1ccc(S(=O)(=O)N2CCN(C(C)C(=O)N(C)Cc3ccccc3)CC2)cc1 (stereo not drawn)	inconclusive: 29.1 µM [inhibitor, single point]	–

SMILES	Potency	activity change, negative = growth inhibition
CN(NC(=O)Nc1ccc(Cl)cc1)c1ncc(C(F)(F)F)cc1Cl	inconclusive: 11.6 µM [inhibitor, partial curve]	–
O=C(CN1C(=O)C2CCCCN2c2ccc(C(=O)N3CCCC3)cc21)NCc1ccccc1F (stereo not drawn)	inconclusive: 29.1 µM [inhibitor, single point]	–
Cc1cccc(NC(=O)NC2COc3ccccc3C2)c1C (stereo not drawn)	–	inactive: -9.35%
Cc1ccc(CN(Cc2ccco2)C(=O)c2cccc(C)c2)cc1	active: 14.6 µM	–
COC(=O)c1ccc(C2C(Oc3ccccc3C)C(=O)N2CCc2ccc(OC)c(OC)c2)cc1 (stereo not drawn)	inconclusive: 29.1 µM [inhibitor, single point]	–
COC(=O)c1sccc1S(=O)(=O)N(CC(=O)NCc1ccc(F)cc1)c1ccc(C)c(C)c1	inconclusive: 18.4 µM [inhibitor, single point]	–
Cc1sc2c3ccsc3ccc2[n+]1C	active: 13 µM	–
Cc1ccc(OCCNc2ccc(S(=O)(=O)N3CCCC3)cn2)cc1	–	inactive: -8.09%
CC(C)COc1ccc(Nc2ncnc3ccc(Br)cc23)cc1	active: 11.6 µM	–
CCOC(=O)Cc1cc(-c2ccc(OC)cc2)nc2ccc3ccccc3c12	active: 18.4 µM	–
COc1ccc(Cc2nnc(C(=O)NCCCN3CCN(c4ccccc4F)CC3)o2)cc1OC	inconclusive: 18.4 µM [inhibitor, single point]	–
Cc1ccc(CSCCNC(=O)c2ccc(Cl)c(S(=O)(=O)N3CCOCC3)c2)cc1	inconclusive: 18.4 µM [inhibitor, single point]	–
CC1CCC(C(=O)NNC(=O)c2cc(-c3ccco3)[nH]n2)CC1 (stereo not drawn)	active: 18.4 µM	–
CC(O)CN(Cc1ccc(Cl)cc1)CC(C)O (stereo not drawn)	–	inactive: 1.11%
CCc1cccc(NC(=S)N(CCCOC(C)C)C2CCN(C(C)=O)CC2)c1	–	inactive: -16.6%
CNS(=O)(=O)c1cn(CC(=O)N2CCN(c3ccc(C)cc3C)CC2)cc1S(=O)(=O)NC	–	inactive: -13.7%
CC(NS(=O)(=O)c1ccc(OCC(=O)NCc2ccccn2)cc1)c1ccccc1 (stereo not drawn)	inconclusive: 2.91 µM [inhibitor, full curve]	–
C/C(=N/NC(=O)c1cc(-c2ccc(Cl)s2)[nH]n1)c1ccco1	–	inactive: -17.9%
CCC(c1ccccc1)c1noc(CCN(CC)CC)n1 (stereo not drawn)	inactive and inconclusive: 29.1 µM [inhibitor, single point]	–
CCCNc1ccc(-c2nc(-c3ccco3)no2)cc1[N+](=O)[O-]	–	inactive: -2.96%
CCOc1ccc(C(=O)COC(=O)c2nc3nccc(C)n3n2)cc1	–	inactive: -1.74%
O=C(O)CCC(=O)N1N=C(c2ccccc2)CC1c1ccc2nccnc2c1 (stereo not drawn)	–	inactive: -2.33%
CCOC(=O)CSc1nc(C(C)(C)C)nc2ccccc12	–	inactive: -20.5%
